Test results taken from paper PMC6919601, “Identification of Plasmodium dipeptidyl aminopeptidase allosteric inhibitors by high throughput screening” (PLoS ONE, 2019).
The whole screen tested about 110,000 compounds, of which about 230 (0.21%) showed an effect of 50% or more. This is one part of the list.

Molecular target: DPAP1 (Plasmodium falciparum, UniProt Q8IIJ9)
Assay: primary screen, percent inhibition; read by cleavage of a fluorogenic dipeptide substrate; higher = more effect of the substance
Set-up: species or system P. falciparum D10 trophozoite lysates; single well
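Note: 30 min substrate incubation versus DMSO and 10 µM JCP410 controls.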

Chain of DPAP1 (Q8IIJ9 whole entry, looked up): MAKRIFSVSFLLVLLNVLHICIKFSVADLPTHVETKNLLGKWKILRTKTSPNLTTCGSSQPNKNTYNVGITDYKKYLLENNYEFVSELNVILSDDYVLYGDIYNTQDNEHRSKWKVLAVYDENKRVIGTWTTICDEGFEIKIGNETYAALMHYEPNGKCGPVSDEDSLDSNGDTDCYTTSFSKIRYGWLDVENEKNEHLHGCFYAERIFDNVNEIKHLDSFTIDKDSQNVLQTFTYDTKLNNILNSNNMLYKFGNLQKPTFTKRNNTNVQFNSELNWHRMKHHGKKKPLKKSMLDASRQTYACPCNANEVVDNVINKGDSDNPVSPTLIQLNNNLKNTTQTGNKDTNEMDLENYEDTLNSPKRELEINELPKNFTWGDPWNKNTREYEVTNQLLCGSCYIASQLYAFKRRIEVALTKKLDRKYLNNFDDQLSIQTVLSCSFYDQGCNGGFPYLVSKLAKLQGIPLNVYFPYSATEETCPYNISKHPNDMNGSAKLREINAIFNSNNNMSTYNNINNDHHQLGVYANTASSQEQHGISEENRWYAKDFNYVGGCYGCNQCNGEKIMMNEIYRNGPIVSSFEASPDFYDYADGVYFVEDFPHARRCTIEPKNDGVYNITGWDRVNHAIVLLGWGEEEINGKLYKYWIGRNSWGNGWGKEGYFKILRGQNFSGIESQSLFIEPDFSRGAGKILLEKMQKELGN

SMILES | % Inhibition @ 10 uM [%]
O=C(NC12CC3CC(CC(C3)C1)C2)N1CCOCC1 | -2.2
Cc1cc(NC(=O)CN2C(=O)c3ccccc3S2(=O)=O)ccc1Br | -2.75
COc1ccc(C)cc1NC(=O)C(C)N(c1ccccc1)S(C)(=O)=O (centres unmarked) | -2.8
O=C(c1cc(-c2ccc3c(c2)OCO3)on1)N1CCOCC1 | -0.591
Nc1nc(NC(=O)c2ccc(F)cc2)nn1-c1ccccc1 | -2.65
Cc1ccc(S(=O)(=O)NC(C)C(=O)Nc2ccc(Cl)c(C(F)(F)F)c2)cc1 (centres unmarked) | -3.87
Cc1ccc(-c2csc(N)n2)c(C)c1 | -4.7
CCOc1ccc(CNC(=O)C(C)n2ccc3cc(S(=O)(=O)N4CCCC4)ccc32)cc1 (centres unmarked) | 4.98
CCc1cc(=O)oc2c(C)c3c(cc12)CN(Cc1ccc(F)cc1)CO3 | -2.57
CC1C(C#N)=C(SCCn2c(C(C)(C)C)nc3ccccc3c2=O)N=C2CC(C)(C)CC(O)=C21 (centres unmarked) | 4.16
Cn1cc(/C=C(\NC(=O)c2ccco2)C(=O)NCCN2CCOCC2)c2ccccc21 | -5.36
CC1=C(C#N)C(c2cccc(F)c2)C2=C(O)CCCC2=N1 (centres unmarked) | -3.09
c1csc(Cc2nc(-c3ccc(-n4cccc4)cc3)no2)c1 | 0.0628
CCN1C(=O)/C(=C/c2ccc(N3CCOCC3)c(F)c2)S/C1=N/c1ccc(N2CCOCC2)cc1 | -2.28
C=CCN1C(=O)C(CC(=O)Nc2ccc(C)cc2)S/C1=N\c1nccs1 (centres unmarked) | 6.03
CCc1ccc(CNC(=O)C2c3ccccc3C(=O)N(C)C2c2cn(C)c3ccccc23)cc1 (centres unmarked) | -5.88
CCC(C)NC(=O)c1ccccc1NC(=O)c1ccc(CN2CCOCC2)cc1 (centres unmarked) | -8.4
OCCNc1ncnc2ccccc12 | -6.86
Cc1nn(Cc2ccc(Cl)cc2)c(C)c1NC(=O)c1ccc(F)cc1 | 0.993
CC(NC(=O)Cn1ncn2cccc2c1=O)c1ccc2c(c1)OCCO2 (centres unmarked) | -0.698
O=C1N/C(=C/c2ccsc2)C(=O)N1c1ccccc1 | 0.161
O/C(=C\C=N\c1ccc(O)cc1)c1ccc(Cl)cc1 | 7.69
COc1cccc(CNCc2cccnc2)c1OCc1ccc(Cl)cc1 | -6.62
Cc1cccc2c(O)c(NC(=O)NCc3cccnc3)cnc12 | 3.66
Cc1c2cnn(CC(=O)N3CCCCC3)c(=O)c2c(C)n1Cc1ccccc1F | -5.81

SMILES | % Inhibition @ 10 uM [%]
CCC(C(=O)N1CCCN(C(=O)C(CC)c2ccccc2)CC1)c1ccccc1 (centres unmarked) | -8.61
Clc1cccc(N2CCN(Cc3ccsc3)CC2)c1 | -2.08
Cc1cccc(NC(=O)CSc2c3c(nc4ccccc24)CCCC3)n1 | -5.34
O=[N+]([O-])c1ccc(N2CCN(Cc3ccc(F)c(Br)c3)CC2)cc1 | -3.65
C=Cn1ccnc1C(O)(c1ccccc1)c1nccn1C=C | -4.43
Cc1cc(C=C2C(=O)c3ccccc3C2=O)c(C)n1-c1ccc(N(C)C)cc1 | -2.97
CCC1CCC(NCCCN2CCOCC2)CC1 (centres unmarked) | -2.21
COc1cc2ccccc2cc1C(=O)Nc1nc2ccccc2s1 | 10.6
Cc1cc(C)cc(OC(C)C(=O)N(Cc2ccc(C)o2)C2CCS(=O)(=O)C2)c1 (centres unmarked) | -2.85
COc1ccc(/C=C(\C#N)c2nc3cccnc3[nH]2)cc1OC | -0.988
Cc1ccc(C(=O)NCCN2Cc3ccccc3C2=O)cc1 | 2.8
COc1ccc(C)cc1N(CC(=O)NCC1CCCO1)S(=O)(=O)c1ccc(C)cc1 (centres unmarked) | -1.04
CCN1C(=O)/C(=C\c2ccncc2)S/C1=N\c1ccc(C)c(C)c1 | -3.77
COC(=O)NC1c2ccccc2Oc2ccc(C)cc21 (centres unmarked) | 4.74
CCOC(=O)N1CCN(c2nc3c(=O)n(C)c(=O)n(C)c3[nH]2)CC1 | -5.38
O=C1N=C(Nc2ccc(Br)cc2)S/C1=C\c1ccc(O)cc1 | 3.17
c1ccc(CSc2nc3ccncc3[nH]2)cc1 | -4.15
COc1ccccc1C(=O)NC1(C(F)(F)F)C(=O)Nc2c1c(=O)[nH]c(=O)n2Cc1ccccc1 (centres unmarked) | -1.72
CC1CCN(CC(=O)c2ccc3cc[nH]c3c2)CC1 | -1.08
CC(C)CS(=O)(=O)c1cccs1 | -1.59
O=C(Nc1cnn(Cc2ccc(Cl)cc2Cl)c1)c1noc2c1CCCC2 | -1.21
CCN(Cc1ccccc1)C(=O)Cn1nc(C)n2c(cc3occc32)c1=O | 2.8
CCOc1ccc(C2c3c(oc4ccc(F)cc4c3=O)C(=O)N2CCOC)cc1 (centres unmarked) | -1.11
CC(=O)N1N=C(c2ccccc2)OC12CCCC2 | 3.79
C1CN(CC2OCC3(CO2)COC(CN2CCOCC2)OC3)CCO1 (centres unmarked) | -3.92
